# Measurements as given in PubChem BioAssay AID686978 (National Center for Advancing Translational Sciences (NCATS), 2013).
# The whole screen tested about 420,000 compounds, of which about 64,000 (15%) were called active. Inconclusive means that the source gave no clear call. Such entries were picked first, then a sample of the others. Calls come from the whole dose curve; as a rule, active = well fitted inhibition curve with a large enough effect; inconclusive = small, poorly fitted or top-dose-only effect; inactive = flat fitted curve, though single readings scatter. No potency is given beside an inconclusive call; the fits are too rough.
# Assay: qHTS for Inhibitors of human tyrosyl-DNA phosphodiesterase 1 (TDP1): qHTS in cells in absence of CPT; note: nearly all actives have a fitted effect of over 55% in size
# Conditions: DT40 Tdp1-/- hTDP1 cells, no CPT, ATP luminescence, 48 h; activity change, negative = growth inhibition: at 46.2 µM (top of the series) unless noted
# How it was run: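 Chicken DT40 Tdp1-/- cells stably complemented with human TDP1 were seeded at 400 cells/well with DMSO in place of 20 nM camptothecin. After compound pinning, cells grew at least 48 hr at 37 °C; viability read by CellTiter-Glo luminescence.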
# % is set by controls: 0 for no effect and ±100 for the full control effect; potency is the fitted concentration of half-maximal effect; tags give direction and shape of the fitted curve.
Structure (SMILES),"activity change, negative = growth inhibition",Potency
CCCS(=O)(=O)Nc1cccc(-c2nc3cccnc3s2)c1,inconclusive: -30.9% [inhibitor],
Cn1c(=O)c2[nH]c(Cc3cccc4ccccc34)nc2n(C)c1=O,,active: 16.4 µM
Cc1c(CNC2CCCCC2)c(C(=O)O)c(C)n1Cc1cccc(Cl)c1,inactive: -25.1%,
CCc1ccc(NC(=O)CN2C(=O)C(c3ccc(Cl)cc3)=NC23CCCCC3)cc1,,"inconclusive [inhibitor, single point]"
COc1ccccc1CCN=C(N)NS(=O)(=O)c1ccc(F)cc1,,"inconclusive [inhibitor, single point]"
O=C(C1CCCO1)N1CCN(Cc2c(O)ccc3ccccc23)CC1 (stereo unspecified),inactive: -19%,
CCc1cc2c(NCC3CCCO3)nc(C)nc2s1 (stereo unspecified),,"inconclusive [inhibitor, single point]"
CCOC(=O)N1CCN(C(=O)COc2cc(C)c(Cl)c(C)c2)CC1,,"inconclusive [inhibitor, single point]"
COc1ccc(Nc2c3ccccc3nc3ccccc23)cc1,,"inconclusive [inhibitor, single point]"
CCOC(=O)c1cccc(NC(=O)/C=C/c2ccc3c(c2)OCO3)c1,,active: 18.4 µM
CC(=O)Cc1nsc(NC(=O)c2cc(-c3cccc(C(F)(F)F)c3)oc2C)n1,,"inconclusive [inhibitor, full curve, poor fit]"
CN(C)S(=O)(=O)c1cccc(C(=O)NCC2(N3CCOCC3)CCCCC2)c1,inconclusive: -32.9% [inhibitor],
Cc1ccc(NC(=S)N2CCC(c3ccc(C)cc3)C2)cc1 (stereo unspecified),,"inconclusive [inhibitor, single point]"
COc1cc(/C=N/n2c(COc3ccccc3)n[nH]c2=S)cc(OC)c1OC(C)=O,,"inconclusive [inhibitor, full curve, poor fit]"
Cc1ccc(CN2CCN(Cc3ccc(-n4cccn4)cc3C)CC2CCO)cc1 (stereo unspecified),,"inconclusive [inhibitor, single point]"
CCOCCCNC(=O)C(NC(=O)Cc1c[nH]c2ccccc12)c1ccc(OC)cc1 (stereo unspecified),inactive: -15%,
CCOc1ccccc1C=NNc1ccc([N+](=O)[O-])cn1,inactive: -0.959%,
CC(=O)Nc1ccc(-c2ccnc3c2CC(C(=O)Nc2cccc(N(C)C)c2)O3)cc1 (stereo unspecified),,active: 2.59 µM
Cc1cccc(Nc2n[nH]c(C)c2[N+](=O)[O-])c1,inactive: -28.2%,
COc1ccc(Nc2nc(C(=O)N(CCO)Cc3ccccc3)cs2)cc1,,"inconclusive [inhibitor, single point]"
Cc1ccc(S(=O)(=O)NCCNC(=O)c2ccccc2)cc1,inactive: -6.61%,
COc1ccc(C)cc1NC(=O)CCC(=O)Nc1ccc2nc(N3CCN(C)CC3)cc(C)c2c1,,"inconclusive [inhibitor, single point]"
Cc1ccc(S(=O)(=O)N2CCN(CC(=O)N3CCCC3)CC2)c(C)c1,inactive: -6.24%,
CCCc1ncc(C(O)c2ccccc2OC)n1C (stereo unspecified),inactive: 3.59%,

Structure (SMILES),"activity change, negative = growth inhibition",Potency
CC(C(=O)c1ccccc1)n1cnc2ccccc2c1=O (stereo unspecified),inconclusive: -36.6% [inhibitor],
Cn1nc(C(=O)Nc2nc(-c3ccc(F)cc3)cs2)ccc1=O,,active: 6.51 µM
CC1(C(=O)NCCc2ccccc2)Cc2c(-c3ccccc3)ccnc2O1 (stereo unspecified),,"inconclusive [inhibitor, single point]"
CS(=O)(=O)Nc1cccc(C2=NN(C(=O)c3ccco3)C(c3ccco3)C2)c1 (stereo unspecified),,"inconclusive [inhibitor, single point]"
CCOc1ccc(NC(=O)CN(C)C(=O)c2cc(S(=O)(=O)N3CCCCC3)ccc2C)cc1OCC,,"inconclusive [inhibitor, single point]"
CS(=O)(=O)c1ccc(C(=O)OCC(=O)Nc2cccnc2Cl)cc1[N+](=O)[O-],,active: 8.2 µM
Oc1[nH]c2ccccc2c1N=NC(=S)N1CCOCC1,,active: 1.46 µM
Cc1nc2cc(NS(=O)(=O)c3cccc(F)c3)ccc2s1,,"inconclusive [inhibitor, partial curve, poor fit]"
Cc1cc(C)cc(OCc2ccc(C(=O)N3N=C(C(F)F)CC3(O)C(F)F)o2)c1 (stereo unspecified),,"inconclusive [inhibitor, partial curve]"
CCOc1ccc(Cl)cc1-c1cc(C(=O)NC(C)C)[nH]n1,,"inconclusive [inhibitor, single point]"
c1ccc(Nc2ccnc(Nc3ccccc3)n2)cc1,,active: 20.6 µM
CC(=O)c1cccc(CN2CCCC(C(=O)Nc3ccc(-c4ccco4)cc3)C2)c1 (stereo unspecified),,"inconclusive [inhibitor, single point]"
CC(=O)N1CCN(c2ccc(NCc3ccc(C)s3)cc2)CC1,,"inconclusive [inhibitor, single point]"
COC(=O)c1sccc1NC(=O)c1ccc(Br)o1,,"inconclusive [inhibitor, partial curve, poor fit]"
NC(=O)c1ccccc1N/C=C/C(=O)c1ccc(Cl)cc1Cl,,active: 18.4 µM
C=CCn1c(C)cc(-c2csc(NC)n2)c1C,,"inconclusive [inhibitor, single point]"
CC(C)OP(=O)(c1ccc(N(C)C)cc1)C(Nc1ccccc1)c1ccccc1 (stereo unspecified),,"inconclusive [inhibitor, single point]"
COCCC(=O)NCC1Cc2cc(Cl)cc(-c3ccc4[nH]ccc4c3)c2O1 (stereo unspecified),,"inconclusive [inhibitor, partial curve]"
COc1ccccc1NC(=O)N(CCCN1CCOCC1)Cc1cc2cc3c(cc2[nH]c1=O)OCO3,,"inconclusive [inhibitor, single point]"
COc1ccc(C(NC(=O)c2cc(OC)ccc2OC)c2ccccc2)cc1 (stereo unspecified),,"inconclusive [inhibitor, single point]"
CCOC(=O)N1CCN(C(=O)CNC(=O)c2nn(-c3ccc(OC)c(OC)c3)c(=O)c3ccccc23)CC1,,"inconclusive [inhibitor, partial curve]"
COc1cc(OC)c(C2Nc3cccc4cccc(c34)N2)c(OC)c1,,active: 14.6 µM
CC(C)c1nnc(NC(=O)CCS(=O)(=O)Cc2ccccc2)s1,inactive: -19%,
Cc1ccc(OCCNC(=O)c2cccc(Oc3ccc(C(F)(F)F)cc3[N+](=O)[O-])c2)cc1,,active: 16.4 µM

Structure (SMILES),"activity change, negative = growth inhibition",Potency
CCOC(=O)C1=C(C)NC(C)=C(C(=O)OCC)C1C(=O)OCC(=O)NC1CCCCC1,,active: 23.1 µM
COC/C=C/C1=CC2=CC(=O)C(C)(OC(=O)c3cnc4ccccc4n3)C(=O)C2=CN1CCN1CCOCC1 (stereo unspecified),,"inconclusive [inhibitor, single point]"
CC(=O)Nc1ccc(S(=O)(=O)Nc2c(NC3CCCCC3)c3ccccc3oc2=O)cc1,,"inconclusive [inhibitor, single point]"
Cc1cc(C(=O)N2CCN(c3cccc(C)c3C)CC2)c2c(C)nn(-c3ccccc3)c2n1,,active: 7.31 µM
CCn1c(-c2cccn(Cc3ccc(Cl)cc3Cl)c2=O)n[nH]c1=S,,"inconclusive [inhibitor, single point]"
Cc1ccc(NCC(=O)Nc2cccc(S(=O)(=O)N(C)C)c2)cc1S(=O)(=O)N1CCCCCC1,,active: 7.31 µM
CCN(CC)c1cc(CS(=O)c2ccccc2)nc(-c2ccccc2)n1 (stereo unspecified),,"inconclusive [inhibitor, single point]"
Cc1ccc(C(=O)c2cn(CC(=O)NCc3ccccc3Cl)c3nc(C)ccc3c2=O)cc1,,"inconclusive [inhibitor, single point]"
Cc1nn(Cc2ccc([N+](=O)[O-])cc2)c(=O)n1-c1ccc(Cl)cc1,inactive: -3.58%,
CCCc1cc(C(=O)N2CCCC(Nc3ccc(C)c(C)c3)C2)n(C)n1 (stereo unspecified),,"inconclusive [inhibitor, partial curve]"
Cn1c(=O)c2cc(NC(=O)NCCc3cccs3)ccc2n1Cc1cccc(C(F)(F)F)c1,,active: 23.1 µM
CCCCNC(=S)N1CCn2cccc2C1c1ccccc1 (stereo unspecified),,"inconclusive [inhibitor, single point]"
Cn1c(=S)c2[nH]c(SCc3cccnc3)nc2n(C)c1=O,,"inconclusive [inhibitor, single point]"
Cc1cc2nc(C(C)(C)C)c(Cc3ccccc3C(F)(F)F)n2c(C)c1Br,,"inconclusive [inhibitor, single point]"
CCCC(=O)NC(C)c1nc2ccccc2n1Cc1ccccc1 (stereo unspecified),,"inconclusive [inhibitor, single point]"
O=C(Nc1ccccc1Cl)c1cc(C2CCCN(C(=O)C3CCCCC3)C2)on1 (stereo unspecified),,"inconclusive [inhibitor, single point]"
Cc1cccc(NC(=S)N2CCCCCC2)c1C,,"inconclusive [inhibitor, partial curve]"
N=c1oc2cc(O)ccc2cc1C(=O)Nc1ccc(F)cc1,,"inconclusive [inhibitor, single point]"
COc1ccc(S(=O)(=O)N2CCCN(CC(=O)Nc3ccc(OC)cc3OC)CC2)cc1,,active: 11.6 µM
Cn1cccc1/C=C1/SC(=O)N(CC(=O)N2CCCC2)C1=O,inactive: -5.47%,
Cc1ccccc1NC(=O)CSc1nnc(C2CC2)n1CC1CCCO1 (stereo unspecified),inactive: -0.0965%,
Cc1ccc(C(OCC(O)CNC(C)c2ccccc2)c2ccccc2)cc1 (stereo unspecified),,active: 11.6 µM
Cc1ccc(/C=N/NC(=O)c2nnn(-c3nonc3N)c2CNc2ccccc2)cc1,,"inconclusive [inhibitor, single point]"
